From patent US20180057596A1

Molecular target: human IL-4Rα on TF-1 cells (human) (UniProt P24394)
Test: cell-based or functional assay

Chain of UniProt P24394 (P24394 26-825): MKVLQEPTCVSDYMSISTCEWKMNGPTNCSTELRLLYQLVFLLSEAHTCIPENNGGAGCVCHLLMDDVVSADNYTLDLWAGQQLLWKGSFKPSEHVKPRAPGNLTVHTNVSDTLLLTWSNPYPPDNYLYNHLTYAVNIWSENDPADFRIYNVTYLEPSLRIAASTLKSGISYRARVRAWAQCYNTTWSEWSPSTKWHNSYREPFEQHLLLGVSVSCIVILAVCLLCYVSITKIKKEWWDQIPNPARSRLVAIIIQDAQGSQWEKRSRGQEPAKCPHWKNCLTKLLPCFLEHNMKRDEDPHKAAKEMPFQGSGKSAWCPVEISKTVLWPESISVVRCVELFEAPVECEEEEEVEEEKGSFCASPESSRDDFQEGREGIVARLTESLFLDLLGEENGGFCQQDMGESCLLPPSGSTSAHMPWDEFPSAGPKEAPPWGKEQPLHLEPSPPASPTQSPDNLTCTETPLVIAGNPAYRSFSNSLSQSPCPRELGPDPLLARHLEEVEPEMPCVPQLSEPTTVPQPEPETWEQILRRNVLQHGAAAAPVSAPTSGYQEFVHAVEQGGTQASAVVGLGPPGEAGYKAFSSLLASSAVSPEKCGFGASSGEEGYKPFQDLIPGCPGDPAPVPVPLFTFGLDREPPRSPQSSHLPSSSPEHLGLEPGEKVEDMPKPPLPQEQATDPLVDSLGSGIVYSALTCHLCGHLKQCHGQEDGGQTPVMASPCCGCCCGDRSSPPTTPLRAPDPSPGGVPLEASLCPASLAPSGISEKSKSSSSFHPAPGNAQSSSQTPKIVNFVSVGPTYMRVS

IC50 (pM), IL-4 induced TF-1 cell proliferation: 42.7 pM | IC50 (pM), IL-13 induced TF-1 cell proliferation: 79.1 pM
B1: 12B5 (antibody, from another filing, V domains shown)
VH: EVQLVQSGGGLVHPGGSLRLSCAGSGFTFSRNAMFWVRQAPGKGLEWVSGIGTGGATNYADSVKGRFTISRDNAKNSLYLQMNSLRAEDMAVYYCARGRYYFDYWGQGTLVTVSS
VL: [about 100 residues left out]
